This note sets out measurements from PubChem BioAssay AID1347073 (National Center for Advancing Translational Sciences (NCATS), 2019).

Molecules are shown by their SMILES. The whole screen tested about 45,000 compounds, of which about 200 (0.44%) were called active. Inconclusive results (about 7%) are left out. The call rests on the fitted dose curve; in most records, active means well fitted activation curve with a large enough effect; inconclusive means small, poorly fitted or top-dose-only effect; inactive means no such curve, though single readings can be large or run the other way. Some of the results follow.

The nature of the assay: qHTS of TDP-43 Inhibitors: NCGC Sytravon Library Screen. Further: 0% is about no effect; nearly all actives have a fitted effect of over 55% in size. The conditions noted are these: yeast TDP-43 toxicity rescue, BacTiter-Glo growth, 24 h; series mostly up to 46.1 µM; growth rescue (activation): at the top concentration. The method in brief:
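TDP-43-expressing yeast, pregrown in raffinose, seeded at OD600 0.02 in galactose medium with compound for 24 hr at 30 deg C. Growth read by BacTiter-Glo luminescence, so rescue of toxicity appears as activation.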
Consider `O=C(Cc1ccc(Br)cc1)OCC(=O)c1ccc[nH]1`, for which the “growth rescue (activation)” value is inactive: 15.1%.

Turning to `CCc1ccc(OC(C)C(=O)Nc2ccccc2C(=O)N2CCOCC2)cc1` (centres undefined), the “growth rescue (activation)” value is inactive: -6.88%.

`NC(=O)N/N=C/c1c(O)ccc2oc3c(c12)CCCC3`: the “growth rescue (activation)” value was inactive: 4.94%.

`Nc1nc2ccc(C(=O)NC3CCCCC3)cc2s1`: the “growth rescue (activation)” value was inactive: -7.46%.

As to `O=C(N/N=C/c1ccccn1)c1cc(-c2ccc(Cl)s2)[nH]n1`, the “growth rescue (activation)” value was inactive: -1.94%.

On to `O=C(COC(=O)c1ccc(F)cc1F)Nc1ncccn1`, for which the “growth rescue (activation)” value was inactive: -6.09%.

Consider `O=S(=O)(/C=C/c1ccccc1)N1CCNCC1`, for which the “growth rescue (activation)” value is inactive: 1.76%.

Turning to `CC(=O)NC1C(=O)N=C(SCC(=O)Nc2sc3c(c2C#N)CCCCCC3)NC1=O` (centres undefined), the “growth rescue (activation)” value was inactive: -1.98%.

For the compound `O=C(COc1ccccc1-c1ccccc1)N/N=C/c1ccc2ccccc2c1`, the “growth rescue (activation)” value was inactive: -8.41%.

Regarding `Cn1c(=NC(=O)C2CCN(S(=O)(=O)c3cccs3)CC2)sc2ccccc21`, the “growth rescue (activation)” value was inactive: 10.4%.

On to `O=[N+]([O-])c1ccc(COc2ccccc2/C=N/O)cc1`, for which the “growth rescue (activation)” value is inactive: -1.14%.

For the compound `Cc1cc(NC(=O)C2CCCCC2)ccc1NC(=O)c1ccccc1Cl`, the “growth rescue (activation)” value is inactive: 17.7%.

As for `O=C(O)CCCCCn1c(O)c(C=C2N=c3ccccc3=N2)sc1=S`, the “growth rescue (activation)” value is inactive: 26.7%.

Regarding `COc1cc(Br)c(C(=O)c2nccc3cc(OC)c(OC)cc23)cc1OC`, the “growth rescue (activation)” value was inactive: 22.3%.

Consider `COc1cc(C2Nc3ccccc3NC3=C2C(=O)CC(c2ccc(OC)c(OC)c2)C3)ccc1O` (centres undefined), for which the “growth rescue (activation)” value was inactive: -11%.

As for `O=S(=O)(c1ccccc1)N1CN(Cc2ccc(F)cc2)c2nc3ccccc3nc21`, the “growth rescue (activation)” value is inactive: 11.7%.

As to `O=c1[nH]cnc2sc3c(c12)CCC3`, the “growth rescue (activation)” value is inactive: -12.9%.

For the compound `O=C(CCC(=O)N1CCCC1)Nc1ccc([N+](=O)[O-])cc1`, the “growth rescue (activation)” value is inactive: 16.5%.

As for `COc1cccc(C(=O)Oc2ccc(N3C(=O)CCC3=O)c(C)c2)c1`, the “growth rescue (activation)” value was inactive: 14.1%.

As for `O=[N+]([O-])c1cccc(-n2nncc2-c2ccccc2)c1`, the “growth rescue (activation)” value was inactive: 17.7%.

In the case of `CSc1cccc(NC(=O)C2CCCN(S(=O)(=O)c3cccs3)C2)c1` (centres undefined), the “growth rescue (activation)” value is inactive: 5.37%.

As to `O=C(O)c1ccc(/C=N/NC(=O)c2cc(-c3ccc4c5c(cccc35)CC4)n[nH]2)cc1`, the “growth rescue (activation)” value was inactive: 7.96%.

On to `CC(C)Oc1cccc(NC(=O)C2(C)CCCN2C(=O)C(C)C)c1` (centres undefined), for which the “growth rescue (activation)” value is inactive: -3.65%.

As for `Cc1c(-n2c(SCC(=O)NC(C)C(C)C)nc3ccccc3c2=O)c(=O)n(-c2ccccc2)n1C` (centres undefined), the “growth rescue (activation)” value was inactive: 10.3%.

With `O=C(Nc1ccc(N2CCN(C(=O)c3ccccc3)CC2)cc1)c1cccs1`, the “growth rescue (activation)” value is inactive: -19.1%.

For the compound `CN(CC(=O)Nc1ccccc1C(F)(F)F)C(=O)Cc1ccccc1F`, the “growth rescue (activation)” value was inactive: -0.412%.

In the case of `OC[C@@H]1CN(Cc2ccc3c(c2)OCO3)C[C@H](n2cnc3c(NC4CCC4)ncnc32)O1`, the “growth rescue (activation)” value was inactive: 11.9%.

With `CCc1cc(C(=O)O)c(NC(=O)c2cc(OC)c(OC)c(OC)c2)s1`, the “growth rescue (activation)” value was inactive: 3.91%.

As to `O=C(O)C1CCN(C(=O)CSc2nc3cc(Cl)ccc3c(=O)n2Cc2ccccc2)CC1`, the “growth rescue (activation)” value is inactive: 13.8%.
